This is one part of the list. At the low end of the ranking, values are background and their order means little.
Each sequence was assayed on MYC (p64) + MAX (p21), in MYC:MAX (assay: protein-binding microarray (anti-MAX antibody)). Conditions: PBM: 15 mM Tris-HCl pH 7.5, 100 mM KCl, 0.075% NP40, 7.5 mM beta-mercaptoethanol, 375 ng/ul BSA, 8 ng/ul poly(dA-dT):(dA-dT), 550 ng complex, 60 min, room …; high values mean tight binding; double strand, one strand shown; sequences stand for … in CCGGC…TTAATAGCTAAGATTACTATATCGACG.
In the case of TGAAGTAAGGTA, the binding signal (log2 normalized fluorescence) is reported as 0.172. With TGATCCGTAGTA the binding signal (log2 normalized fluorescence) was -0.344. TGATAACGCGTA gave a binding signal (log2 normalized fluorescence) of 0.115. Sequence AGACACGTGGTG has a binding signal (log2 normalized fluorescence) of 0.826. Sequence TGAGCCTAAGTA has a binding signal (log2 normalized fluorescence) of -0.155. For TAAAACGTGGTA, the binding signal (log2 normalized fluorescence) was 0.688. TGATTCCAAGTA gave a binding signal (log2 normalized fluorescence) of -0.0353. Sequence TGAGCAACAGTA has a binding signal (log2 normalized fluorescence) of 0.0569. In the case of TGACACGTGAGT, the binding signal (log2 normalized fluorescence) is reported as 0.793. TGAACTGCTGTA showed a binding signal (log2 normalized fluorescence) of 0.121. TGACCATGTGTA showed a binding signal (log2 normalized fluorescence) of 0.599. In the case of TGAACTGTGGTA, the binding signal (log2 normalized fluorescence) is reported as 0.105. With TGACGGGGGGTA the binding signal (log2 normalized fluorescence) was 0.672. TGATACCGGGTA was tested, and the binding signal (log2 normalized fluorescence) was -0.2. TGATGGGGTGTA gave a binding signal (log2 normalized fluorescence) of 0.289. For TGAACGACAGTA, the binding signal (log2 normalized fluorescence) was 0.294. With TGACGAAGGGTA the binding signal (log2 normalized fluorescence) was -0.0371. TGAACCAAAGTA showed a binding signal (log2 normalized fluorescence) of -0.0967. Work on TGAGAAGCCGTA yielded a binding signal (log2 normalized fluorescence) of -0.0901. With GGACACGTGCTA the binding signal (log2 normalized fluorescence) was 0.839. Sequence TGAGAACGAGTA has a binding signal (log2 normalized fluorescence) of 0.146. Sequence TGACCATGGGTA has a binding signal (log2 normalized fluorescence) of 0.0886. Sequence TGCCACGTAGTG has a binding signal (log2 normalized fluorescence) of 0.23. TGAGTGACCGTA gave a binding signal (log2 normalized fluorescence) of 0.0161. Work on TGACCTTTCGTA yielded a binding signal (log2 normalized fluorescence) of 0.124. In the case of TGACACGTGACA, the binding signal (log2 normalized fluorescence) is reported as 0.756. TGACACGTGACC was tested, and the binding signal (log2 normalized fluorescence) was 0.633. With TCTCACGTCGTA the binding signal (log2 normalized fluorescence) was 0.292. For TGATAACCGGTA, the binding signal (log2 normalized fluorescence) was 0.0563. Sequence TGACATAGTGTA has a binding signal (log2 normalized fluorescence) of 0.159. TGAGCCCACGTA was tested, and the binding signal (log2 normalized fluorescence) was 0.444. With TGAATCCTTGTA the binding signal (log2 normalized fluorescence) was 0.0329. With TGAGAGGATGTA the binding signal (log2 normalized fluorescence) was 0.0117. In the case of TGATGTTTAGTA, the binding signal (log2 normalized fluorescence) is reported as 0.176. TGAAGGACCGTA was tested, and the binding signal (log2 normalized fluorescence) was 0.0673. Work on TGACACGCGGGA yielded a binding signal (log2 normalized fluorescence) of 0.436. Sequence TGAAACGTAGTA has a binding signal (log2 normalized fluorescence) of 0.0734. Sequence TGAAAATAGGTA has a binding signal (log2 normalized fluorescence) of -0.106. Sequence TGAGAACTAGTA has a binding signal (log2 normalized fluorescence) of -0.0292. TGACCGACGGTA showed a binding signal (log2 normalized fluorescence) of -0.0377. Sequence TGATCCATCGTA has a binding signal (log2 normalized fluorescence) of 0.113. Work on TGACTCTCCGTA yielded a binding signal (log2 normalized fluorescence) of -0.0102. Work on TGAAGGTAGGTA yielded a binding signal (log2 normalized fluorescence) of 0.103. Sequence TGAAACTCTGTA has a binding signal (log2 normalized fluorescence) of 0.0158. TGACCCTTGATA showed a binding signal (log2 normalized fluorescence) of 0.0562. With TGATTCTACGTA the binding signal (log2 normalized fluorescence) was -0.109. With TGAATGTTCGTA the binding signal (log2 normalized fluorescence) was 0.267. TGACTAACGGTA was tested, and the binding signal (log2 normalized fluorescence) was 0.156. With TGAATGAGTGTA the binding signal (log2 normalized fluorescence) was 0.179. TGATTCGCCGTA showed a binding signal (log2 normalized fluorescence) of -0.0508. TGAATCCGAGTA gave a binding signal (log2 normalized fluorescence) of -0.0269. For TGACCTCAAGTA, the binding signal (log2 normalized fluorescence) was 0.278. Sequence TGACACCTGAGA has a binding signal (log2 normalized fluorescence) of 0.302. Sequence TGATAGTGAGTA has a binding signal (log2 normalized fluorescence) of 0.0151. Work on TGAGCATCTGTA yielded a binding signal (log2 normalized fluorescence) of 0.0726. Sequence TGACAGTGCGTA has a binding signal (log2 normalized fluorescence) of 0.233. TGATTGCCAGTA showed a binding signal (log2 normalized fluorescence) of -0.173. With TGACGACGCGTA the binding signal (log2 normalized fluorescence) was 0.424. Work on TGAGACCTAGTA yielded a binding signal (log2 normalized fluorescence) of 0.0908. TGACGGTTTGTA was tested, and the binding signal (log2 normalized fluorescence) was -0.123. TGAAGGCTAGTA showed a binding signal (log2 normalized fluorescence) of -0.0941. TGAAGTCGAGTA gave a binding signal (log2 normalized fluorescence) of -0.0181. With TGAGAGGCAGTA the binding signal (log2 normalized fluorescence) was -0.0652. With TGACACGTGGCC the binding signal (log2 normalized fluorescence) was 0.897. For TGACCGGTGCTA, the binding signal (log2 normalized fluorescence) was 0.151. For TGACGAAGCGTA, the binding signal (log2 normalized fluorescence) was 0.0775. For TGAAAGATAGTA, the binding signal (log2 normalized fluorescence) was -0.00687. For TGAGGTTTCGTA, the binding signal (log2 normalized fluorescence) was -0.145. Work on TGACTCCGTGTA yielded a binding signal (log2 normalized fluorescence) of 0.183. Sequence TCACACATGCTA has a binding signal (log2 normalized fluorescence) of 0.767. In the case of TGATGGCCAGTA, the binding signal (log2 normalized fluorescence) is reported as 0.128. Sequence GCCGATTACCCT has a binding signal (log2 normalized fluorescence) of -0.0941. TGACACGTATTA showed a binding signal (log2 normalized fluorescence) of 0.347. Work on TGATAAGATGTA yielded a binding signal (log2 normalized fluorescence) of -0.0494. Work on TGAATCCACGTA yielded a binding signal (log2 normalized fluorescence) of 0.325. For TGACGCTGTGTA, the binding signal (log2 normalized fluorescence) was 0.122. Sequence TGATCCGCTGTA has a binding signal (log2 normalized fluorescence) of -0.0182. Work on TTACACGTGGTA yielded a binding signal (log2 normalized fluorescence) of 0.847. In the case of TGATTTCAGGTA, the binding signal (log2 normalized fluorescence) is reported as -0.268. TGTTACGTGGTA gave a binding signal (log2 normalized fluorescence) of 0.418. Work on TGAGCCCGAGTA yielded a binding signal (log2 normalized fluorescence) of -0.203. TGACATGTGATA gave a binding signal (log2 normalized fluorescence) of 0.694. With TGATGAGCAGTA the binding signal (log2 normalized fluorescence) was -0.0208. TGATATATCGTA gave a binding signal (log2 normalized fluorescence) of 0.0668. Sequence TGACGCCAGGTA has a binding signal (log2 normalized fluorescence) of 0.186. Work on TGAGCCTCGGTA yielded a binding signal (log2 normalized fluorescence) of 0.114. With TGTCACCTTGTA the binding signal (log2 normalized fluorescence) was 0.395. Work on TGACTCAGCGTA yielded a binding signal (log2 normalized fluorescence) of 0.0353. In the case of TGAAGAAAAGTA, the binding signal (log2 normalized fluorescence) is reported as -0.132. Sequence TGATCGTGTGTA has a binding signal (log2 normalized fluorescence) of 0.406. For TGACCACATGTA, the binding signal (log2 normalized fluorescence) was 0.581. With TGATACCACGTA the binding signal (log2 normalized fluorescence) was 0.299. Sequence TGACTAGCAGTA has a binding signal (log2 normalized fluorescence) of -0.0743. For TGATAGGTTGTA, the binding signal (log2 normalized fluorescence) was -0.209. For TGAAATTTTGTA, the binding signal (log2 normalized fluorescence) was -0.246. Sequence TGAATAAGCGTA has a binding signal (log2 normalized fluorescence) of -0.00477. For TGAAACGTGGTA, the binding signal (log2 normalized fluorescence) was 0.637. Work on TGACACGTTGAA yielded a binding signal (log2 normalized fluorescence) of 0.44. With TGACCAAACGTA the binding signal (log2 normalized fluorescence) was 0.237. With TGAACCGTGGTA the binding signal (log2 normalized fluorescence) was 0.207. Work on TGAGACTGGGTA yielded a binding signal (log2 normalized fluorescence) of -0.103. TGAAGGTCGGTA showed a binding signal (log2 normalized fluorescence) of -0.0977. Work on TGAGCACAGGTA yielded a binding signal (log2 normalized fluorescence) of 0.141. In the case of TGAGCTTGGGTA, the binding signal (log2 normalized fluorescence) is reported as -0.149. TGATCGCACGTA gave a binding signal (log2 normalized fluorescence) of 0.115. Work on TGAATCGTTGTA yielded a binding signal (log2 normalized fluorescence) of 0.13. In the case of TGACGGCTTGTA, the binding signal (log2 normalized fluorescence) is reported as -0.0228. In the case of TGACCTCTCGTA, the binding signal (log2 normalized fluorescence) is reported as 0.0599. For ACTATCTTTGTT, the binding signal (log2 normalized fluorescence) was 0.032. TGATTCGAGGTA gave a binding signal (log2 normalized fluorescence) of -0.0274. TGAGTTTCCGTA was tested, and the binding signal (log2 normalized fluorescence) was -0.0243. In the case of TGAAGAGCTGTA, the binding signal (log2 normalized fluorescence) is reported as 0.00393. With TGAGACTTAGTA the binding signal (log2 normalized fluorescence) was -0.116. TGAGGGTTCGTA showed a binding signal (log2 normalized fluorescence) of -0.0138. In the case of TGAGTACGTGTA, the binding signal (log2 normalized fluorescence) is reported as 0.0477. For TGAAGCGACGTA, the binding signal (log2 normalized fluorescence) was 0.0624. TGAAACACCGTA gave a binding signal (log2 normalized fluorescence) of 0.333. TGAAGGTCAGTA was tested, and the binding signal (log2 normalized fluorescence) was 0.0356. For TGATCGTCGGTA, the binding signal (log2 normalized fluorescence) was -0.0726. TGATGAGATGTA showed a binding signal (log2 normalized fluorescence) of 0.0453. With TGACACGTAATA the binding signal (log2 normalized fluorescence) was 0.279. With TGAGCATCCGTA the binding signal (log2 normalized fluorescence) was 0.0794. In the case of TGAAGCCCTGTA, the binding signal (log2 normalized fluorescence) is reported as -0.014. With TGAATCGTCGTA the binding signal (log2 normalized fluorescence) was 0.00644. Work on ACTCACGTGGTA yielded a binding signal (log2 normalized fluorescence) of 0.862. With TGACGTCTGGTA the binding signal (log2 normalized fluorescence) was 0.0941. In the case of TGACACGGATTA, the binding signal (log2 normalized fluorescence) is reported as 0.193. In the case of TGAAACATAGTA, the binding signal (log2 normalized fluorescence) is reported as -0.0101. In the case of TGAAGGCGGGTA, the binding signal (log2 normalized fluorescence) is reported as 0.0594. Work on TGATTCTGAGTA yielded a binding signal (log2 normalized fluorescence) of -0.287. TGATCCATAGTA gave a binding signal (log2 normalized fluorescence) of -0.0476. Work on TGATATGCCGTA yielded a binding signal (log2 normalized fluorescence) of 0.0609. AGTCACATGGTA showed a binding signal (log2 normalized fluorescence) of 0.995. In the case of TTCTACGTGGTA, the binding signal (log2 normalized fluorescence) is reported as 0.444. In the case of TGACGATTTGTA, the binding signal (log2 normalized fluorescence) is reported as 0.1. With TGACGCAGCGTA the binding signal (log2 normalized fluorescence) was 0.178. Sequence TGATTCCGCGTA has a binding signal (log2 normalized fluorescence) of -0.0293.

Source: article PMC5515408
